Source: a collection of fitness landscapes (doi:10.1016/j.celrep.2020.107928)
Over roughly 81,000 sequences, “one-hybrid fitness for binding NBS DNA” has its median near -0.1; the highest 2% begin near 0.36. Some of the results follow.

B1: Caulobacter ParB omega fusion; a variant is named by its letters at X, in order, B8GW30 (parent)
chain: MESVVVGEPGMSEGRRGLGRGLSALLGEVDAAPAQAPGEQLGGSREAPIEILQRNPDQPRRTFREEDLEDLSNSIREKGVLQPILVRPSPDTAGEYQIVAGERAWRAAQRAGLKTVPIMVRELDDLAVLEIGIIENVQRADLNVLEEALSYKVLMEKFERTQENIAQTIGKSXSHVANXMRLLXLPDEVQSYLVSGELTAXHARAIAAAADPVALAKQIIEGGLSVRETEALARKAPNLSAGKSKGGRPPRVKDTDTQALESDLSSVLGLDVSIDHRGSTGTLTITYATLEQLDDLCNRLTRGI

Variants of: B1
Test: one-hybrid fitness for binding NBS DNA (the Noc-binding site; scaled: cognate 1, non-cognate 0); higher = stronger binding
Details: with NBS DNA site
Summary of the method: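 The reporter was HIS3, with the binding site 19 bp from the promoter, in E. coli USO used for bacterial one-hybrid selection of Caulobacter ParB libraries with four specificity codons randomised. Growth was on M9 lacking histidine, with 0.1 mM IPTG and 5 mM 3-AT, for 48 hours at 37°C. Illumina sequencing covered plasmids before and after selection; three replicate libraries were pooled and variants with under 10 reads dropped. A fitness score is the log change in variant-to-wild-type read ratio, rescaled to the cognate and non-cognate references.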

Variant | one-hybrid fitness for binding NBS DNA
VICC | ≤ 0.2
QSGI | ≤ 0.2
DRRF | ≤ 0.2
RLLY | ≤ 0.2
HIHT | ≤ 0.2
KYRN | ≤ 0.2
MPSS | ≤ 0.2
QWKT | 0.25
VCQC | ≤ 0.2
HKTT | ≤ 0.2
ALGI | ≤ 0.2
PLWS | ≤ 0.2
RGQN | ≤ 0.2
FEIG | ≤ 0.2
RYPM | ≤ 0.2
DATN | ≤ 0.2
EPCM | ≤ 0.2
RQNE | ≤ 0.2
RAYH | ≤ 0.2
THDI | ≤ 0.2
PAGK | ≤ 0.2
VVWY | ≤ 0.2
VRVR | ≤ 0.2
RTIV | ≤ 0.2
QAHQ | ≤ 0.2

Variant | one-hybrid fitness for binding NBS DNA
NCLS | ≤ 0.2
LWGG | ≤ 0.2
LRFC | ≤ 0.2
VRMP | ≤ 0.2
NRSE | ≤ 0.2
RGGC | ≤ 0.2
LAYG | ≤ 0.2
ADRN | ≤ 0.2
QYVE | ≤ 0.2
DKRW | ≤ 0.2
ANSA | ≤ 0.2
KEMS | ≤ 0.2
PFNI | ≤ 0.2
RNYT | ≤ 0.2
KMQS | ≤ 0.2
SWNA | ≤ 0.2
ICPS | ≤ 0.2
QPAC | ≤ 0.2
QGKM | ≤ 0.2
DNQG | ≤ 0.2
LTAN | ≤ 0.2
RDLG | ≤ 0.2
HKTL | ≤ 0.2
PVDC | ≤ 0.2
MASC | ≤ 0.2

Variant | one-hybrid fitness for binding NBS DNA
TSDD | ≤ 0.2
MADT | ≤ 0.2
KRIT | 0.481
YDFY | ≤ 0.2
QLKR | 0.932
QWAN | ≤ 0.2
VYYG | ≤ 0.2
NHDF | ≤ 0.2
ACPD | ≤ 0.2
SSTA | ≤ 0.2
ITFT | ≤ 0.2
RAKK | ≤ 0.2
PSQK | ≤ 0.2
RFAA | ≤ 0.2
TCRP | ≤ 0.2
FGPG | ≤ 0.2
CAVP | ≤ 0.2
GYSC | ≤ 0.2
PGHR | ≤ 0.2
KAPV | ≤ 0.2
YQPP | ≤ 0.2
PMEV | ≤ 0.2
EEST | ≤ 0.2
FQRM | ≤ 0.2
PATI | ≤ 0.2

Variant | one-hybrid fitness for binding NBS DNA
TLRS | ≤ 0.2
HRAD | ≤ 0.2
RNPV | ≤ 0.2
PSVS | ≤ 0.2
LPNT | ≤ 0.2
AWTF | ≤ 0.2
KLRI | ≤ 0.2
VLAG | ≤ 0.2
ANYT | ≤ 0.2
TYVR | ≤ 0.2
CFLW | ≤ 0.2
ESDN | ≤ 0.2
ISRY | ≤ 0.2
LHHR | ≤ 0.2
KVGG | ≤ 0.2
KDRR | ≤ 0.2
PEHV | ≤ 0.2
WKIC | ≤ 0.2
QDRV | ≤ 0.2
PVVN | ≤ 0.2
NLFC | ≤ 0.2
IRFG | ≤ 0.2
RQWM | ≤ 0.2
